Laboratory results published in patent EP4737479A1 (Bio-Thera Solutions, Ltd., dated 2026).

B1: VHH1-Fc (Fc fusion)
chain: EVQLVESGGGLVQPGGSLRLSCAASGFTFSSYAMGWVRQAPGKGREFVSAISGNGGSTYYADSVKGRFTISRDNSKNTLYLQMNSLRAEDTAVYYCAAGYSYLYPGGLSTRPSFYDYWGQGTQVTVSSGGGGSGGGGS[human IgG1 Fc with changes not written out]
notes: also called 4-1BB-VHH-Fc fusion protein
B2: VHH2-Fc (Fc fusion)
chain: EVQLVESGGGLVQPGGSLRLSCAASGFTFSSYAMGWVRQAPGKGREFVSAISGNGGSTYYADSVKGRFTISRDNSKNTLYLQMNSLRAEDTAVYYCAAGDAYVYPYGVSTDPSFYDYWGQGTQVTVSSGGGGSGGGGS[human IgG1 Fc with changes not written out]
notes: as for B1
B3: VHH6-Fc (Fc fusion)
chain: EVQLVESGGGLVQPGGSLRLSCAASGFTFSSYAMGWVRQAPGKGREFVSAISGSGGSTYYADSVKGRFTISRDNSKNTLYLQMNSLRAEDTAVYYCAAGYSYLYPGGLSTRPSFYDYWGQGTQVTVSSGGGGSGGGGS[human IgG1 Fc with changes not written out]
notes: as for B1
B4: VHH8-Fc (Fc fusion)
chain: EVQLVESGGGLVQPGGSLRLSCAASGFTFSSYAMGWVRQAPGKGREFVSAISGNGGSTFYADSVKGRFTISRDNSKNTLYLQMNSLRAEDTAVYYCAAGYSYLYPGGLSTRPSFYDYWGQGTQVTVSSGGGGSGGGGS[human IgG1 Fc with changes not written out]
notes: as for B1
B5: VHH13-Fc (Fc fusion)
chain: EVQLVESGGGLVQPGGSLRLSCAASGFTFSSYAMGWVRQAPGKGREFVSAISGYGGTTYYADSVKGRFTISRDNSKNTLYLQMNSLRAEDTAVYYCAAGTGYYSRVGVSTDPSFYDYWGQGTQVTVSSGGGGSGGGGS[human IgG1 Fc with changes not written out]
notes: as for B1

What follows are binders tested against T1, antigen 4-1BB (Sino Biological, Cat. No. 10041-H08H) (UniProt Q07011 24-186) (assay: SPR (Biacore T200), sample captured on the chip by Fc, 4-1BB as analyte).
T1 construct: Bought protein used as SPR analyte; also called CD137
T1 sequence (Q07011 24-186 limits assumed): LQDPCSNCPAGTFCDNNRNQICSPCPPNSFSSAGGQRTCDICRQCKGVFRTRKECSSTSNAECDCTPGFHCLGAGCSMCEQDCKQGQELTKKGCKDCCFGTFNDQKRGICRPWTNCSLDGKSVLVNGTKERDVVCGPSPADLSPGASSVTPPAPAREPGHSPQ
B1 gave a Kd of 250 nM, a koff of 0.00733 s⁻¹ and a kon of 29300 M⁻¹ s⁻¹. B2 was tested, and the Kd was 77.1 nM, the koff was 0.00232 s⁻¹ and the kon was 30200 M⁻¹ s⁻¹. Binder B3 has a Kd of 153 nM, a koff of 0.00854 s⁻¹ and a kon of 55700 M⁻¹ s⁻¹. B4 gave a Kd of 151 nM, a koff of 0.00735 s⁻¹ and a kon of 48600 M⁻¹ s⁻¹. In the case of B5, the Kd is reported as 96.4 nM, the koff is reported as 0.00487 s⁻¹ and the kon is reported as 50500 M⁻¹ s⁻¹.
